{
  "source": "PubChem BioAssay AID488969",
  "about": "(Vanderbilt High Throughput Screening Facility, 2010)",
  "note": "In all, about 110,000 compounds were measured (“z-score”: median about -0.1, highest 2% from about 2 on). The list shows a part of the results. Active and inactive are the calls of the source.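 The calls were made as follows: active = z-score in the third read window above 3 or below -3; inactive = the rest.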",
  "data": [
    {"target": "Metabotropic glutamate receptor 8 (Rattus norvegicus) (UniProt P70579)", "sequence (P70579 whole entry, looked up)": "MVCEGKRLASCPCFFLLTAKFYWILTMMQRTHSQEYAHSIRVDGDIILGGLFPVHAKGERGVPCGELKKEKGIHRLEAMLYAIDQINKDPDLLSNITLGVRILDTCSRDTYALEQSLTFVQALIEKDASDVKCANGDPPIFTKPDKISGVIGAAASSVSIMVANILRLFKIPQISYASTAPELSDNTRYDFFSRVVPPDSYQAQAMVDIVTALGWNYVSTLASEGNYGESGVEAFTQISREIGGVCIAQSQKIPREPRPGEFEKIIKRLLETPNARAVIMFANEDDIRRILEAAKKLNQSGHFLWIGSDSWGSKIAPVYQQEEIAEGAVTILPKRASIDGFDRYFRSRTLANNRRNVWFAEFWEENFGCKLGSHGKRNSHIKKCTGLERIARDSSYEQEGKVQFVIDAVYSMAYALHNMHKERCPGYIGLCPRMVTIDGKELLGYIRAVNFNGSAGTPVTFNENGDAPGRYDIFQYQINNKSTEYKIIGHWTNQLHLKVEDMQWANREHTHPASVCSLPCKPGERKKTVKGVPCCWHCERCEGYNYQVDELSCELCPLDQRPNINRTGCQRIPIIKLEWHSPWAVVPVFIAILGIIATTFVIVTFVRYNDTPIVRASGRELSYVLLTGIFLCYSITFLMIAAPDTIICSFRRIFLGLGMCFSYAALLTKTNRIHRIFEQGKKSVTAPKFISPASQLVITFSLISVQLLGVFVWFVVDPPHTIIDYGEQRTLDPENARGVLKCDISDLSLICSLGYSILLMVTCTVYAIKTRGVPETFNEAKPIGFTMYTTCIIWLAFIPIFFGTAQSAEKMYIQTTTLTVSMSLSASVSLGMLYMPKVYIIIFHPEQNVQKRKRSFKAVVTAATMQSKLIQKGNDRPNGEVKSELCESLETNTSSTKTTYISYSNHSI", "assay": "mGluR8 Gi/Go-coupled signaling modulation – cell-based, rat, thallium flux, HTS, primary screen (AID 488969)", "settings": "HEK293 rat mGluR8, GIRK (G protein-gated inwardly rectifying potassium channel) thallium flux, FluoZin2; at 10 µM; stronger effect = higher value; submaximal glutamate (EC20) added with thallium", "values": [
      {"smiles": "CSC1=C(C#N)C(c2ccccc2Cl)C2=C(N1)c1ccccc1C2=O", "note": "(stereo not given)", "z-score": -0.988},
      {"smiles": "CCOC(=O)C1(C(C)(C)CC)CC(CSc2nc3ccccc3[nH]2)OC1=O", "note": "(stereo not given)", "z-score": 0.329},
      {"smiles": "Cn1nc(C(=O)Nc2ccc(S(=O)(=O)N3CCCC3)cc2)ccc1=O", "z-score": 0.245},
      {"smiles": "Cc1ccc(C(=O)NC(=S)NCCN2CCOCC2)cc1", "z-score": 0.477},
      {"smiles": "CC(NC(=O)c1ccccc1Cl)C1COc2ccccc2O1", "note": "(stereo not given)", "z-score": -0.205},
      {"smiles": "CCN1CCN(S(=O)(=O)c2ccc(C)c([N+](=O)[O-])c2)CC1", "z-score": -0.169},
      {"smiles": "CC(=O)N1CCN(c2ccc(N=Cc3c(O)n(Cc4ccccc4)c(=O)[nH]c3=O)cc2)CC1", "z-score": -0.266},
      {"smiles": "CC1=C(C#N)C(C(F)(F)F)(C(F)(F)F)N=C(c2ccco2)N1", "z-score": 0.283},
      {"smiles": "O=C(NCc1cccc(Cl)c1)c1cccc(C(F)(F)F)c1", "z-score": -0.539},
      {"smiles": "CCN1C(=O)c2cccc3c(NS(=O)(=O)c4ccc(NC(C)=O)cc4)ccc1c23", "z-score": -1.52},
      {"smiles": "O=C(Nc1ccc(Cn2cccn2)cc1)c1ccc(COc2cccc(Br)c2)cc1", "z-score": -0.354},
      {"smiles": "CCOC(=O)CN1C(=O)S/C(=C/c2ccc3c(c2)n(C)c(=O)n3C)C1=O", "z-score": -0.23},
      {"smiles": "CCN(CCCNC(=O)C1CCC(=O)N1Cc1ccccc1Cl)c1cccc(C)c1", "note": "(stereo not given)", "z-score": -0.84},
      {"smiles": "O=C(NCCCN1CCOCC1)c1cc(-c2ccccc2)on1", "z-score": -0.329},
      {"smiles": "Cc1ccccc1NC(=O)c1cc(N)ccc1N1CCCCC1", "z-score": -0.319},
      {"smiles": "Cc1ccc(/C=N\\NC(=O)c2cc([N+](=O)[O-])cc([N+](=O)[O-])c2)o1", "z-score": "active: 4.57"},
      {"smiles": "COc1ccccc1N1CCN(C(=O)CSc2nc(C)c(Cc3ccccc3)c(=O)[nH]2)CC1", "z-score": -0.00727},
      {"smiles": "CCSC(=O)N(CC)CC(=O)Nc1c(CC)cccc1CC", "z-score": -0.553},
      {"smiles": "COc1cccc(C2C(C#N)=C(N)OC3=C2C(=O)CC(c2ccco2)C3)c1OCc1ccc(F)cc1", "note": "(stereo not given)", "z-score": -0.186},
      {"smiles": "Cc1sc(NC(=S)NC(=O)CCc2ccccc2)c(C(N)=O)c1C", "z-score": -0.297},
      {"smiles": "Cc1ccccc1NC(=S)N(C)Cc1cn(C)c2ccccc12", "z-score": 0.812},
      {"smiles": "O=C(NCc1ccco1)c1nc2c(nnn2Cc2cccc(Cl)c2)c(=O)[nH]1", "z-score": -0.491},
      {"smiles": "O=C(N/N=C\\c1ccc(Cl)cc1)c1sccc1-n1cccc1", "z-score": 0.1},
      {"smiles": "CC(NC(=O)CCC(=O)NC(C)C1COc2ccccc2O1)C1COc2ccccc2O1", "note": "(stereo not given)", "z-score": -0.434},
      {"smiles": "COc1ccc(-c2nnc(SCC(=O)Nc3sc4c(c3C#N)CCCC4)n2-c2ccccc2)cc1", "z-score": -0.275},
      {"smiles": "CSc1ccc(Cl)c(C(=O)Nc2ccc(OCC(N)=O)cc2)c1", "z-score": -0.157},
      {"smiles": "O=C(Nc1ccc(Cl)cc1)[C@@H]1[C@@H]2C(=O)N(c3ccc4ccccc4c3)C(=O)[C@@H]2[C@H]2C=CC=NN21", "z-score": -0.281},
      {"smiles": "CCNc1ccc(S(=O)(=O)N(C)C)cc1NCC(=O)Nc1ccccc1F", "z-score": -0.159},
      {"smiles": "CCCCCCSc1cc(C)nc2ncnn12", "z-score": -0.416},
      {"smiles": "CN1CCC(C2(O)c3ccccc3CSc3sccc32)CC1", "note": "(stereo not given)", "z-score": 2.02},
      {"smiles": "Cc1cc2ncc(-c3ncc(C(F)(F)F)cc3Cl)cn2n1", "z-score": -0.148},
      {"smiles": "Cc1nn(-c2ccccn2)c2c1C(c1ccncc1)C1=C(CC(C)(C)CC1=O)N2", "note": "(stereo not given)", "z-score": -0.749},
      {"smiles": "O=c1oc2cc(Oc3ccc(C(F)(F)F)cc3[N+](=O)[O-])ccc2c2c1CCC2", "z-score": -2.23},
      {"smiles": "COc1cccc(CN(C)CC(=O)NCc2ccccc2Cl)c1", "z-score": -0.428},
      {"smiles": "COC(=O)c1cccc(S(=O)(=O)N2CCOCC2)c1", "z-score": -0.197},
      {"smiles": "COc1ccc(CCNc2nc(-c3sc(N)nc3C)cs2)cc1OC", "z-score": -0.105},
      {"smiles": "Cc1ccc(NC(=O)C2CCN(S(=O)(=O)c3c(C)noc3/C=C/c3ccco3)CC2)nc1", "z-score": -0.287},
      {"smiles": "CCOc1ccc(N2CSC3=C(C#N)C(c4ccco4)CC(=O)N3C2)cc1", "note": "(stereo not given)", "z-score": -0.728},
      {"smiles": "O=C(CSc1nnnn1-c1ccc2c(c1)CCC2)Nc1ccc2c(c1)OCCO2", "z-score": -0.151},
      {"smiles": "CCOC(=O)COc1ccccc1/C=N/O", "z-score": -0.259},
      {"smiles": "COc1ccc(-n2c(SCC(=O)Nc3ccccc3)nnc2-c2ccc(NS(=O)(=O)c3ccc(C)cc3)cc2)cc1", "z-score": 0.0713},
      {"smiles": "O=C(O)c1cccc(NC(=O)c2cccc(NC(=O)C3CCCO3)c2)c1", "note": "(stereo not given)", "z-score": -0.122},
      {"smiles": "Cc1ccc(C(=O)NC2CCN(C(=O)NC3CCCCC3)CC2)cc1", "z-score": 0.275},
      {"smiles": "CC(=O)c1c(C)nc(C)nc1NC(=O)C(C)C", "z-score": -0.127},
      {"smiles": "COc1cc(C2C(C(=O)OCCC#N)=C(C)NC3=C2S(=O)(=O)c2ccccc23)cc(OC)c1OC", "note": "(stereo not given)", "z-score": -0.219},
      {"smiles": "O=S1(=O)c2ccccc2N=NN1Cc1ccc(Cl)cc1", "z-score": 0.142},
      {"smiles": "COc1cc(-c2cn[nH]c2N)cc(OC)c1OC", "z-score": 0.202},
      {"smiles": "Cc1ccc(N=C2NC(=O)c3cccc([N+](=O)[O-])c32)cc1", "z-score": -0.0756},
      {"smiles": "CCNNC(=O)C(O)(c1cccc(C)c1)c1cccc(C)c1", "z-score": 0.0236},
      {"smiles": "CCN(CC)c1ccc(NC(=O)c2[nH]c(C)c(C(C)=O)c2C)c(C)c1", "z-score": 0.615},
      {"smiles": "Cc1ccc(CSCCNC(=O)CN2C(=O)c3ccccc3S2(=O)=O)cc1", "z-score": 0.181},
      {"smiles": "CN1CCN(NC(=O)c2ccc(F)cc2)CC1", "z-score": -0.781},
      {"smiles": "CCNC(=O)NC1(C(=O)Nc2ccc3c(c2)OCCO3)CCCCC1", "z-score": 0.873},
      {"smiles": "CCc1ccc(S(=O)(=O)Nc2c(C)nn(C)c2C)cc1", "z-score": -0.343},
      {"smiles": "CCOC(=O)c1ccc(NC(=O)CSc2nc3cccnc3n2C)cc1", "z-score": 0.279},
      {"smiles": "CCOC(=O)CCc1c(C)nc2cc(-c3ccc(F)cc3)[nH]n2c1=O", "z-score": 0.178},
      {"smiles": "Cc1ccccc1NC(=O)c1sc(Cl)nc1C", "z-score": 1.16},
      {"smiles": "CC(C)(C)c1cnnn1-c1ccc(C(=O)CCl)cc1", "z-score": -0.643},
      {"smiles": "COc1ccc(OC)c(-n2c(SCC(N)=O)nnc2-c2c[nH]c3ccccc23)c1", "z-score": -0.467},
      {"smiles": "Cc1ccc(S(=O)(=O)N(C)CCCC(=O)Nc2ccc(C)cc2C)cc1", "z-score": -0.0933},
      {"smiles": "COC(=O)c1ccsc1NC(=O)C1COc2ccccc2O1", "note": "(stereo not given)", "z-score": -0.613},
      {"smiles": "COc1cc([N+](=O)[O-])ccc1N/C=C/C(=O)c1cccs1", "z-score": -0.108},
      {"smiles": "NC(=S)N/N=C/c1ccc(-c2ccc(Cl)c(Cl)c2)o1", "z-score": 0.653},
      {"smiles": "COC(=O)c1cccc(NC(=O)c2cccs2)c1C", "z-score": 0.109},
      {"smiles": "COc1ccccc1OCC(=O)Nc1ccc(Cl)cc1", "z-score": -0.181},
      {"smiles": "COc1nn(CC(=O)N2N=C(C)CC2(O)C(F)(F)F)cc1[N+](=O)[O-]", "note": "(stereo not given)", "z-score": -0.0682},
      {"smiles": "COc1ccc2ccccc2c1CN1CCN(Cc2ccccc2)CC1", "z-score": 0.223},
      {"smiles": "CCCCCCC(=O)Nc1nnc(CC)s1", "z-score": -0.111},
      {"smiles": "O=C(O)c1cc2c(ccc3ccccc32)[nH]1", "z-score": -0.467},
      {"smiles": "CCN1CCN(C(=S)NC(C)c2ccccc2)CC1", "note": "(stereo not given)", "z-score": -0.207}
    ]}
  ]
}
